# PubChem BioAssay AID463173 (ICCB-Longwood Screening Facility, Harvard Medical School, 2010)
# Screen size: about 52,000 compounds; about 4,300 (8.3%) were called active. Cut-off read from the data, not from the text of the source: active = survival mostly below about 52% (no sharp cut-off); inactive = mostly above about 56%. This is one part of the list.
# System: DeltatarO mutant
# Assay: growth inhibition of S. aureus wild type versus tarO mutant, primary screen, teichoic acid synthesis inhibitors, RN4220, OD600 (AID 463173)
# Conditions: OD600, 18 h, stronger effect = lower value, screened at 18.75 µg/mL (by protocol)
row,SMILES,survival
1,COc1cccc(C(=O)Nc2cc(C)on2)c1,inactive: 89%
2,Cc1cccc(OCC(=O)NCC2(N3CCN(C)CC3)CCCCC2)c1C,inactive: 104%
3,COc1ccc(-c2ccc(Nc3ccc(C(=O)N4CCCCCC4)cc3)nn2)cc1,inactive: 71%
4,CCOc1cc(-c2nnc(SCC(=O)NCc3ccccc3)nc2-c2ccc(OC)c(OCC)c2)ccc1OC,inactive: 67%
5,COc1ccc(/C=C\c2onc(C)c2S(=O)(=O)N2CCC(C(=O)Nc3ccc(Cl)cc3)CC2)cc1,inactive: 65%
6,CCc1ccc(NC(=O)C2CCCN(S(=O)(=O)c3ccc4c(c3)CCCN4C(C)=O)C2)cc1 (stereo not drawn),inactive: 78%
7,COc1ccc(C(=O)N2CC(=O)Nc3ccc(C)cc3C2c2ccccc2)c(OC)c1 (stereo not drawn),inactive: 59%
8,Cc1ccc(-n2ncc(C(=O)N3CCCCC3)c2C2CCN(C(=O)OC(C)(C)C)CC2)cc1C,inactive: 94%
9,CCC(=O)N1CCc2cc(Br)cc(S(=O)(=O)CCC(=O)N3CCN(c4ccccc4OC)CC3)c21,inactive: 80%
10,COc1cc(OC)cc(C(=O)N2CCC(C(=O)NCCc3ccccc3)CC2)c1,inactive: 98%
11,COc1ccc(-c2ccnc3[nH]n(-c4ccccc4)c(=O)c23)cc1,inactive: 61%
12,COc1ccccc1N1CCN(S(=O)(=O)c2ccc3[nH]c4c(c3c2)CCCC4)CC1,inactive: 79%
13,COc1ccc(OCC(=O)Nc2ccc3c(c2)OCO3)cc1,inactive: 76%
14,CCOc1cccc(NC(=O)C2CC(=O)N(C)C(=Nc3cccc(OC)c3)S2)c1 (stereo not drawn),inactive: 82%
15,CCN(CCCNC(=O)CSc1cc(=O)n(C)c2ccccc12)c1ccccc1,inactive: 65%
16,O=C(Nc1ccc(Cl)cc1Cl)c1cc(S(=O)(=O)N2CCC3(CC2)OCCO3)ccc1F,inactive: 96%
17,Cc1cc(C)c(NC(=O)C(C)n2c(=O)cc(C)c3c(C)nn(-c4ccccc4)c32)c(C)c1 (stereo not drawn),inactive: 81%
18,O=C(NC1CCCCCC1)C1CCN(C(=O)N2CCOc3ccc(Cl)cc32)CC1,active: 46%
19,CCCCc1nn2c(=O)cc(COC(=O)c3cccc(NC(=O)COc4ccccc4)c3)nc2s1,inactive: 97%
20,Cc1cc(C)n(-c2nc3ccccc3nc2Nc2ccc(C(C)C)cc2)n1,active: 8%
21,CCOCCCNC(=O)c1ccc2c(c1)NC(=O)C(CS(=O)(=O)Cc1ccc(F)cc1Cl)N2 (stereo not drawn),inactive: 88%
22,CC(OC(=O)C1CCCCC1)c1nc2ccccc2[nH]1 (stereo not drawn),inactive: 92%

row,SMILES,survival
1,Cc1cc(C)c(NC(=O)Cn2c(=O)n(-c3cccc(C(F)(F)F)c3)c(=O)c3c(C)c(C)sc32)c(C)c1,inactive: 92%
2,COc1ccccc1NC(=O)C(Cc1ccccc1)NS(=O)(=O)c1ccc2c(c1)CCN2C(C)=O (stereo not drawn),inactive: 84%
3,O=C(O)c1ccc(Nc2nc3ccccc3c3nncn23)cc1,inactive: 95%
4,CCc1ccccc1Nc1nn2c(=O)c3ccc(C(=O)NCc4ccc(C)cc4)cc3nc2s1,inactive: 93%
5,Nc1ccc(N2CCOCC2)cc1C(F)(F)F,inactive: 80%
6,CC(=O)N1CCc2c(sc3c2c(=O)n(-c2ccccc2)c(=O)n3CC(=O)c2ccc(Cl)cc2)C1,inactive: 93%
7,O=C(NCc1cccc(F)c1)C1CCN(c2nc3ccccc3nc2C(F)(F)F)CC1,inactive: 92%
8,COCCNC(=O)CCn1c(=O)c2cc(OC)c(OC)cc2n(CC(=O)Nc2ccc(F)c(Cl)c2)c1=O,inactive: 62%
9,O=C(NCCCc1nc2ccccc2n1Cc1ccc(F)cc1)C1CCCCC1,inactive: 78%
10,Cc1ccc(C)c(CSc2nc3c([nH]c4ccccc43)c(=O)n2C)c1,inactive: 86%
11,COC(=O)C1=C(N)OC2=C(C(=O)CCC2)C1c1ccc(OC)cc1 (stereo not drawn),inactive: 102%
12,CC(C)c1ccc2oc(-c3ccc(Cl)c(NC(=O)c4cccs4)c3)nc2c1,active: 5%
13,Cn1nc(-c2ccc(OCC(=O)Nc3cccc(C(F)(F)F)c3)cc2)c2ccccc2c1=O,inactive: 78%
14,Cc1cccc(C)c1OCc1cc(=O)n2c(-c3ccccc3)csc2n1,active: 19%
15,COc1ccc(NC(=O)c2cc(S(=O)(=O)N3CCOCC3)cn2C)cc1Cl,inactive: 108%
16,COCCCNC(=O)c1ccc(Cn2c(=O)c3ccccc3n(CC(N)=O)c2=O)cc1,inactive: 81%
17,CCN(C(=O)c1ccc2c(c1)N(Cc1cccc(Cl)c1)C(=O)c1ccccc1S2=O)c1ccccc1 (stereo not drawn),active: 32%
18,COc1ccc(-c2cc3nc(N)cc(=O)n3[nH]2)cc1,inactive: 148%
19,CCC(=O)N1c2ccccc2CC1C(=O)NCCCN1CCN(c2cc(C)ccc2C)CC1 (stereo not drawn),inactive: 116%
20,N#CCCn1nc(-c2ccccc2)cc1-c1ccccc1,inactive: 73%
21,COc1ccc2oc(=O)c(-c3nnc(-c4ccccc4)o3)cc2c1,inactive: 69%
22,COc1cccc2c1cc1c(=O)n(CC(=O)N3CCN(c4ccccc4F)CC3)nc(C)n12,inactive: 95%

row,SMILES,survival
1,O=C1CS(=O)(=O)C2(C(=O)Nc3ccccc32)N1c1cccc(Cl)c1 (stereo not drawn),inactive: 88%
2,CCOc1ccc(NC(=O)CCCc2nc(-c3cccc(OC)c3)no2)cc1,inactive: 53%
3,CCN(CC)CCNC(=O)c1cc(-c2ccc(Br)s2)nc2ccccc12,active: 28%
4,Cc1nc(-n2nc(C)c(Cc3ccc4c(c3)OCO4)c2C)sc1C(=O)Nc1cccc(Cl)c1,inactive: 78%
5,CCc1nn(CC(=O)Nc2cc(C)cc(C)c2)c(=O)c2cc3sccc3n12,inactive: 53%
6,Cc1ccc(CN2CCCn3nc(C(=O)NCc4ccc(OC(C)C)cc4)cc3C2=O)cc1,inactive: 83%
7,Nc1nsnc1C(=O)NCCO,inactive: 83%
8,Cc1ccc(NS(=O)(=O)c2cnc(N)nc2)c(C)c1,inactive: 81%
9,CCN(CC)CCNC(=O)C1CCN(c2cc(C)nc3c(-c4ccc(Cl)cc4)c(C)nn23)CC1,inactive: 139%
10,CCC(C(=O)Nc1nnc2n1CCS2)c1ccccc1 (stereo not drawn),inactive: 55%
11,Cc1cc2nc(-c3ccc(SCC#N)nc3)[nH]c2cc1C,inactive: 74%
12,Cc1ccc(CN2C(=O)CN(C3CCC(C)CC3)C(=O)C2c2ccc(F)cc2)cc1 (stereo not drawn),inactive: 91%
13,COc1ccc(Cn2c(=O)n(-c3ccccc3C)c(=O)c3c4c(sc32)CN(C(C)=O)CC4)cc1,inactive: 63%
14,NS(=O)(=O)c1ccc(NC(=O)/C=C/C(=O)O)cc1,inactive: 107%
15,CCCN(CCC)CCNC(=O)c1cc2c(-c3ccc(Cl)cc3)nn(C)c2s1,inactive: 124%
16,CCOc1ccccc1NC(=O)N1CCN(C)c2ncccc21,inactive: 86%
17,CSc1cccc(NC(=O)CC(c2cccs2)N2Cc3ccccc3C2=O)c1 (stereo not drawn),inactive: 112%
18,COc1ccc2nc(NC(=O)c3nc(S(=O)(=O)Cc4ccccc4)ncc3Cl)sc2c1,inactive: 77%
19,CSc1ccc(CCNC(=O)CCc2c(C)nc3c(c(C)nn3-c3ccc(C)c(C)c3)c2C)cc1,inactive: 91%
20,CCc1ccc2c(c1)c1nnc(SCC(=O)NC3CCCCC3C)nc1n2C (stereo not drawn),inactive: 85%
21,CCOC(=O)c1cccc(NC(=O)c2ccc3nc(C(C)C)oc3c2)c1,inactive: 67%
22,CC1(C)C(=O)NCCN1C(=O)CCC(=O)O,inactive: 98%

row,SMILES,survival
1,CCCNC(=O)CSc1nc2ccccc2nc1Cc1ccc(Cl)cc1,inactive: 74%
2,Cc1ccc(C)c(CN2C(=O)c3ccccc3S(=O)(=O)c3ccc(C(=O)N4CCc5ccccc54)cc32)c1,inactive: 71%
3,Cc1ccc(OCC(=O)NCC(c2ccc(Cl)cc2)N2CCCCC2)cc1 (stereo not drawn),inactive: 60%
4,Cc1ccc2c(c1)N(CC(=O)NC(C)(C)C)C(=O)C(C)O2 (stereo not drawn),inactive: 91%
5,COc1ccc2[nH]c(=O)c(CN(C3CCCC3)S(=O)(=O)c3cccc4nsnc34)cc2c1,inactive: 96%
6,COc1ccc(NC(=O)N2CCc3c(sc4c3CCCC4)C2c2ccccc2OC)cc1 (stereo not drawn),active: 54%
7,CC(C)CC(=O)Nc1ccc2nc(SCC(=O)N3CCCC3)sc2c1,inactive: 88%
8,CCOC(=O)c1c(C)sc(-c2c(-c3cc(C)ccc3C)[nH]c3c2c(=O)n(C)c(=O)n3C)c1O,inactive: 105%
9,Cc1ccc(NC(=O)CCn2nc(C)c(S(=O)(=O)N3CCCCC3)c2C)cc1Cl,inactive: 130%
10,CCOc1ccc(N(CC(=O)Nc2cc(C)ccc2C)S(=O)(=O)c2c(C)[nH]c(=O)[nH]c2=O)cc1,inactive: 69%
11,O=C(NCc1ccc2c(c1)CCN2C(=O)c1ccccc1)Nc1cc(F)ccc1F,inactive: 97%
12,CCOC(=O)Cc1ccc(NC(=O)Nc2ccccc2OCc2cc(=O)n3ccccc3n2)cc1,inactive: 72%
13,COc1ccc(Cn2c(CNS(=O)(=O)c3ccc(C)c(C)c3)nc3cccnc32)cc1,active: 17%
14,CCn1nnc2cc(C(=O)Nc3cccc(Cl)c3C)ccc21,inactive: 60%
15,COc1ccc(-c2nc3scc(CCNS(=O)(=O)c4ccccc4F)n3n2)cc1,inactive: 90%
16,COc1ccc(C)cc1S(=O)(=O)NCC(c1cccs1)S(=O)(=O)c1ccc(C)cc1 (stereo not drawn),inactive: 69%
17,CC(Oc1ccc(F)cc1)C(=O)Nc1nc(-c2ccc(F)cc2)ns1 (stereo not drawn),active: -2%
18,CCN1CCN(c2ncnc3c2cnn3-c2ccc(C)c(Cl)c2)CC1,inactive: 119%
19,COc1ccc(-n2c(C)c(C(C)=O)c3cc(OC(=O)c4ccc(C)cc4)ccc32)cc1,inactive: 52%
20,CCOC(=O)c1ccc(OCC2c3cc(OC)c(OC)cc3CCN2C(=O)c2ccc(S(=O)(=O)N3CCCC3)cc2)cc1 (stereo not drawn),inactive: 89%
21,CCn1c(CNC(=O)c2ccc(OC)cc2)nnc1SCC(=O)Nc1ccccc1,inactive: 128%
22,COC(=O)c1ccc(NC(=O)CCc2c(C)nc3c(-c4ccccc4)c(C)nn3c2C)cc1,inactive: 74%
